# The campaign covered roughly 310,000 compounds. About 14,000 (4.5%) showed an effect of 50% or more. The effect is printed as a negative number. The list shows a part of the results.
# Target: human ether-à-go-go-related gene (hERG) potassium channel (human, UniProt Q12809)
# Assay: primary screen, population patch clamp on CHO cells stably expressing hERG
# 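Further: peak tail current of the secondary pulse compared with the same well before compound.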
# Sequence of human ether-à-go-go-related gene (hERG) potassium channel (Q12809 whole entry, looked up): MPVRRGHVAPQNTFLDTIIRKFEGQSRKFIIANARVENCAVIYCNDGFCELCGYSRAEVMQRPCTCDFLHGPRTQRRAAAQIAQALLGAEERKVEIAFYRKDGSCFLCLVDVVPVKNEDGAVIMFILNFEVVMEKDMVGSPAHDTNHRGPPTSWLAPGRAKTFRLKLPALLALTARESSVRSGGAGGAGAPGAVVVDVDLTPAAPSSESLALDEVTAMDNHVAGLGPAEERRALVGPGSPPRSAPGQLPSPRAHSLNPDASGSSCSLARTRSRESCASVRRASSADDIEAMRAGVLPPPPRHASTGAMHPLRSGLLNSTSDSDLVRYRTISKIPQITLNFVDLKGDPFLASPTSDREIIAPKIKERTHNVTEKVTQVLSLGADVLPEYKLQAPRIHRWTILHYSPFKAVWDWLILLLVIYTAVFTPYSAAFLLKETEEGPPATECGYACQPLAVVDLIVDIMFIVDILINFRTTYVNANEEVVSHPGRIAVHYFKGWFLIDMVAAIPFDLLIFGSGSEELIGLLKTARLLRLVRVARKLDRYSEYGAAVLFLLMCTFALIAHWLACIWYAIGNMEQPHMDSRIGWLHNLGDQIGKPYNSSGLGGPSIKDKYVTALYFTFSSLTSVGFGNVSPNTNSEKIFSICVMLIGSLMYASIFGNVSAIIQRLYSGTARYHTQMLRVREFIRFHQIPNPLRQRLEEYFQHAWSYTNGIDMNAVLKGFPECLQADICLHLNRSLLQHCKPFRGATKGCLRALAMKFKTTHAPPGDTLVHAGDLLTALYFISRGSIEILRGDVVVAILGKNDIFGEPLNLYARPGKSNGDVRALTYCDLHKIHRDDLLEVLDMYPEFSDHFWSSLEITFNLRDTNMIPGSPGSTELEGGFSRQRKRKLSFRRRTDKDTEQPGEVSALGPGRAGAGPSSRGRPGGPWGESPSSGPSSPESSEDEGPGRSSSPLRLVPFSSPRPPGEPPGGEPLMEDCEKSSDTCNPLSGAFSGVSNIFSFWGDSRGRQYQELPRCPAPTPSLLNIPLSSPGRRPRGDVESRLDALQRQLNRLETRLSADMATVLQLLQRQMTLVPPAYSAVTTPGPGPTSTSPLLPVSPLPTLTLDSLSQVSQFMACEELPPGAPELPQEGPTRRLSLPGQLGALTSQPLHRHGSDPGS
row,Structure (SMILES),"hERG current change (%, negative = inhibition) at 10uM [%]"
1,Cc1cc(C)c(OCCCCN2CCNCC2)c(C)c1.O=C(O)C(=O)O,9.44
2,O=C(Nc1ccc(N2CCCC(O)C2)cc1)c1snc2c(=O)[nH]cnc12 (stereo not drawn),12.3
3,C=CCn1cccc(C(=O)Nc2cc(OC)c(OC)c(OC)c2)c1=O,3.71
4,Cc1ccc(NS(=O)(=O)c2ccc(OCC(=O)NCc3ccco3)cc2)cc1,-20.7
5,CC(=NCC1CCCO1)c1c(O)n(C2CCCCC2)c(=O)[nH]c1=O (stereo not drawn),-9.77
6,COc1ccc(Br)cc1CNC(=O)Cc1c(C(=O)O)[nH]c2ccc(Cl)cc12,27.2
7,Cc1ccccc1Cn1c2ccccc2c2cnn(CC(=O)NCCCN3CCOCC3)c(=O)c21,-18.6
8,CC(C)CCNC(=O)C(NS(=O)(=O)c1ccc2c(c1)c(=O)n(C)c(=O)n2C)c1ccccc1 (stereo not drawn),13.2
9,O=C(NC1CCCC1)C(=O)N(Cc1cccnc1)C(C(=O)NCc1ccco1)c1ccccc1F (stereo not drawn),-3.41
10,Cc1sc2nc(SCC(N)=O)n(-c3ccccc3)c(=O)c2c1C,2.15
11,CC(C)C(=O)Nc1c(-c2ccccc2Cl)c(=O)c2ccccc2n1C,11.8
12,Cc1ccccc1NC(=S)NC(=O)C1CCCCC1,12.2
13,O=C(Cc1ccc(S(=O)(=O)N2CCOCC2)s1)Nc1ccc2c(c1)CCC2,-15.7
14,CC(=O)Nc1ccc2nc(SCC(=O)NCCOc3ccccc3)sc2c1,-16.7
15,CCNc1nc(NCC)n2c(SCC(=O)NCC3CCCCC3)nnc2n1,10.9
16,COc1ccccc1-c1cc(C(=O)N2CCN(c3ccc(F)cc3)CC2)no1,0.108
17,O=C(CCCN1C(=O)/C(=C/c2cccs2)SC1=S)Nc1cccnc1,13.2
18,COc1cccc(OCC(=O)O)c1,4.45
19,COc1ccccc1OCC(=O)NC1CCCc2ccccc21 (stereo not drawn),15.2
20,COc1ccc(-n2ccnc2SCC(=O)NCc2ccc3c(c2)OCO3)cc1,-7.81
21,Brc1ccc(OCCCCCN2CCOCC2)cc1.O=C(O)C(=O)O,-63.8
22,COc1ccc(Br)cc1CN1CCN(C(=O)c2ccc(OC)c(OC)c2)CC1.O=C(O)C(=O)O,-38.1

row,Structure (SMILES),"hERG current change (%, negative = inhibition) at 10uM [%]"
1,O=C(NCCc1ccc(Cl)cc1)c1n[nH]c2ccccc12,16.7
2,NC(=O)c1ccc(N2CCN(c3ccccc3O)CC2)c([N+](=O)[O-])c1,-30.2
3,CN(C)S(=O)(=O)c1ccc(N2CCCC2)c(C(=O)Nc2ccc(F)cc2F)c1,-33.2
4,CN(CC(=O)NCC1CCCCC1)CC(=O)Nc1ccccc1Br,-21.2
5,O=C(Nc1c2c(nn1-c1cccc(Cl)c1)CS(=O)(=O)C2)c1cccs1,-18.8
6,CNNC(=S)Nc1ccc(Cl)cc1,-15.1
7,CC(C)(C)NS(=O)(=O)c1ccc(NC(=O)c2cc(-c3ccccc3)nc3ccccc23)cc1,-5.14
8,Cc1c(C(=O)NCCC2=CCCCC2)cccc1[N+](=O)[O-],-1.5
9,CCN(CC)S(=O)(=O)c1ccc(N2CCOCC2)c(NC(=O)c2cccc3c(=O)c(C)c(-c4ccccc4)oc23)c1,-55
10,Cc1ccc2c(c1)C(c1ccccc1)N(C(=O)c1ccccc1)CC(=O)N2 (stereo not drawn),-7.17
11,COc1ccc(C2SCC(=O)Nc3c2c(C)nn3C2CCOC(C)(C)C2)cc1OC (stereo not drawn),0.748
12,O=C1CC(c2ccc(Cl)cc2)c2c(O)cc(O)cc2O1 (stereo not drawn),19.9
13,COc1ccc(OC)c(NC(=O)c2cc3n(n2)C(C(F)(F)F)CC(c2ccc4c(c2)OCO4)N3)c1 (stereo not drawn),0.971
14,NC(=O)c1ccc[n+](CC(=O)NCc2ccc(Cl)cc2)c1.[Cl-],8.9
15,CN(Cc1ccccc1Br)C(=O)CN1C(=O)NC2(CCCCCC2)C1=O,-11.1
16,CC(=O)c1ccc2c(c1)OCO2,16.1
17,CCN(CC)Cc1c(C(=O)N/N=C/c2cccs2)nnn1-c1nonc1N,-47.4
18,CN(C)C(CNC(=O)c1ccccc1OCc1ccc(Cl)cc1)c1ccco1 (stereo not drawn),-60.3
19,Cc1cc(OCCCN2CCN(Cc3ccccc3)CC2)ccc1[N+](=O)[O-].O=C(O)C(=O)O,-71.5
20,Cc1cc(C)c(NC(=O)CN2C(=O)NC(Cc3ccccc3)C2=O)c(C)c1 (stereo not drawn),9.29
21,CCOC(=O)Cn1nc(C)n(-c2ccccc2)c1=O,-6.25
22,O=S(=O)(/N=C/c1ccccc1O)c1cccs1,3.75

row,Structure (SMILES),"hERG current change (%, negative = inhibition) at 10uM [%]"
1,OC(C#CCN1CCCCC1)(c1ccccc1)c1ccccc1,-24.6
2,CSc1nc2nc3c(cc2c(=O)n1-c1ccccc1C)COC(C)(C)C3,-21.6
3,Cc1ccc(C2=NOC(C)(c3nnc(-c4ccncc4)o3)C2)cc1 (stereo not drawn),7.48
4,CS(=O)(=O)O.OC(CCN1CCCCC1)(c1ccccc1)c1ccccc1,-36.2
5,CCCc1nc2oc3c(Cl)ncnc3c2c2c1CCCC2,8.03
6,CC(=O)c1c(C)[nH]c(C(=O)CSc2nc3ccc(C)cc3[nH]2)c1C,-2.54
7,Cc1ccc(-c2noc(-c3ccccc3C(=O)N3CCN(C)CC3)n2)cc1,-51.2
8,COc1ccc(CCNC(=O)Cn2cnc3sc(C)c(-c4ccc(F)cc4)c3c2=O)cc1OC,-25.5
9,O=c1cc(Nc2ccc3c(c2)OCCO3)[nH]c(=O)n1Cc1ccc(F)cc1,0.78
10,COc1ccc(CNC(=O)OCCN2CCN(Cc3ccccc3)CCC2=O)cc1,-36.2
11,OCCC1CN(Cc2nc(-c3ccccc3)cs2)CCN1Cc1ccc(F)cc1 (stereo not drawn),-69.8
12,CCOc1ccc(N(C(C)C(=O)N/N=C(\C)C(C)(C)C)S(C)(=O)=O)cc1 (stereo not drawn),1.74
13,O=C(NCc1ccco1)/C(=C/c1ccco1)NC(=O)c1ccco1,3.07
14,Cc1ccn2c(c1)nc(=O)c1cc(S(=O)(=O)N3CCOCC3)ccc12,9.59
15,COc1ccccc1/C=N/NC(=O)c1ccc(NC(=O)c2ccccc2Br)cc1,3.86
16,O=C(CNC(=O)c1ccccc1C(=O)O)c1ccccc1,1.52
17,COc1cc(C2c3c([nH]c(=O)[nH]c3=O)Nc3ccc4ccccc4c32)ccc1O (stereo not drawn),-2.8
18,O=C(O)c1cccc(N2C(=O)C3CC=CCC3C2=O)c1 (stereo not drawn),-3.16
19,COc1ccc(CN2CCC(n3nccc3NC(=O)CCCc3ccccc3)CC2)cc1C,-93.3
20,Cc1cc(C)c2c(N)c3cccc(C)c3nc2n1,-64.7
21,COc1ccc(C2N(S(=O)(=O)c3ccc(C)cc3)CCN2S(=O)(=O)c2ccc(C)cc2)cc1,-11.1
22,Cc1cc(C)c(C)c(S(=O)(=O)NC2CCN(Cc3ccccc3)CC2)c1C.Cl,5.25

row,Structure (SMILES),"hERG current change (%, negative = inhibition) at 10uM [%]"
1,O=C(NCCC(=O)N1CCCC(C(F)(F)F)C1)c1ccc(Br)cc1 (stereo not drawn),4.48
2,NC(=O)c1cccc(CS(=O)(=O)c2ccc(Cl)cc2)c1,-4.75
3,O=C(CCOc1ccccc1)Nc1nnc(-c2ccc3c(c2)OCCO3)o1,19.9
4,C/C(=N\NC(=O)COc1cccc(Br)c1)c1ccc2c(c1)OCCO2,12.4
5,CCCN(Cc1cc2cc(C)ccc2[nH]c1=O)C(=O)c1ccccn1,7.79
6,Cc1nonc1C1CCCN1Cc1cn[nH]c1-c1ccc2c(c1)OCO2 (stereo not drawn),-25.6
7,COc1ccc(S(=O)(=O)N2CCC(C(=O)NCc3ccccc3)CC2)cc1OC,8.65
8,C=CCNC(=O)C(=O)NCC(c1ccc2c(c1)OCO2)N1CCN(c2ccc(F)cc2)CC1 (stereo not drawn),3.34
9,O=C(Nc1cccc(Cl)c1N1CCOCC1)c1cccnc1,-40.6
10,CC(C)(C)c1ccc(-n2ncc3c2CCCC3NC(=O)C2(C(N)=O)CC2)cc1 (stereo not drawn),-29.1
11,C/C(=N\NC(=O)c1nc2ccccn2c1C)c1cccc([N+](=O)[O-])c1,-23.4
12,C=CCNc1ncnc2c1cnn2-c1ccc(OC)cc1,2.55
13,Cc1ccc(NC(=O)Cc2noc3ccccc23)c(C)c1,11.2
14,O=[N+]([O-])c1cccc(S(=O)(=O)NC2CC3CCC2C3)c1 (stereo not drawn),4.74
15,COc1cccc(CN2CCN(CCCc3ccccc3)C(CCO)C2)c1O (stereo not drawn),-72.4
16,Cc1ccc2nc(C3CCN(CC(=O)Nc4ccc5c(c4)OCCO5)CC3)[nH]c2c1,-50.6
17,Br.CCn1c(=N)n(CC(=O)c2ccco2)c2ccccc21,-3.75
18,COc1ccc(CN2CCC(CO)(CCOc3ccccc3)CC2)c(OC)c1C,-83.5
19,O=C(CN1CCCC1)Nc1ccc(F)cc1,23.3
20,O=C(Cc1c(O)c2ccccc2[nH]c1=O)NC1CCCCCC1,3.69
21,Cc1ccc(NS(=O)(=O)c2ccc(NC(=O)c3ccc(Br)o3)cc2)c(C)c1,-11.8
